Hit rate of the full screen: of about 45,000 compounds, about 65 (0.1%) were called active. Calls come from the whole dose curve; as a rule, active = well fitted activation curve with a large enough effect; inconclusive = small, poorly fitted or top-dose-only effect; inactive = no such curve, though single readings can be large or run the other way. This is one part of the list.
target: Galactocerebrosidase (Homo sapiens) (UniProt P54803); assay: A Novel Cell-Based Assay to Identify Small Molecules for B -Galactocerebrosidase; conditions: 145M-Twi-hGALC-G270D cells (Twitcher mouse brain line with human GALC G270D), HMU-beta-Gal fluorescence, 48 h; series mostly up to 57.5 µM; activation: at the top concentration; note: 0% is about no effect; nearly all actives have a fitted effect of over 65% in size
Procedure, shortened: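 Fluorescence readout: HMU-β-gal cleavage by mutant GALC (0.1 mM final, citrate/phosphate pH 5.2 with 1 mg/mL taurocholate), stopped with carbonate/bicarbonate plus Triton X-100. Cells: murine Twitcher 145M-Twi expressing human G270D GALC; qHTS for activators.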

Sequence of UniProt P54803 (P54803 whole entry, looked up): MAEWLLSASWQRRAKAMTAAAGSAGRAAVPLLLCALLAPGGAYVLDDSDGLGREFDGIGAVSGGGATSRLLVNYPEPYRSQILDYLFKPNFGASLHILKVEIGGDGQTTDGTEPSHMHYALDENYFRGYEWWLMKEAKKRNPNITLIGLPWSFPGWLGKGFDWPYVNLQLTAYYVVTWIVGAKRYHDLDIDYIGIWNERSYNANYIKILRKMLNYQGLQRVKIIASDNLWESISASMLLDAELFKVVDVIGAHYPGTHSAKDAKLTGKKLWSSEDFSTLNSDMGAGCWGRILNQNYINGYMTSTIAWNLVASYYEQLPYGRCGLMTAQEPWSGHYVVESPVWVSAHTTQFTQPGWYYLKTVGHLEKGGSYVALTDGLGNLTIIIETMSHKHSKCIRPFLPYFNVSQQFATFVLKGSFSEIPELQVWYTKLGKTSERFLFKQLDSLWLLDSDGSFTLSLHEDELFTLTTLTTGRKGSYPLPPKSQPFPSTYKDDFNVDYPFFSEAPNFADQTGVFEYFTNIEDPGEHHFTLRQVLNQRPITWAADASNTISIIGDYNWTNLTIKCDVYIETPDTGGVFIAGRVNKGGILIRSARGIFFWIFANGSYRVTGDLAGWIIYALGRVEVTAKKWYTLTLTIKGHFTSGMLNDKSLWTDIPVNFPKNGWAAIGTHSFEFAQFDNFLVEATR

activation, inactive:
C=CCc1ccccc1OCc1nc2ccc(C)cc2[nH]1 -13.8%
Cc1ccc(NC(=O)c2c3c(nc4ccccc24)C(=O)N(C2CCCCC2)C3)cc1F -19.7%
Cn1c(=O)n(CC(=O)O)c(=O)c2c1nc1n2CCCN1c1ccc(Cl)cc1 -10.4%
CCOC(=O)c1c(NC(=O)CSc2nc(-c3ccc(OC)cc3)cc(C(F)(F)F)n2)sc(C)c1C -16.3%
Cc1ccc(C2C=C(c3ccccc3)Nc3nc(NS(=O)(=O)c4ccc(C)cc4)nn32)cc1 (stereo not given) -8.18%
Cc1ccc2oc(=O)c3cnn(CC(=O)N4CCN(c5ccccc5F)CC4)c3c2c1 -11.7%
Cc1ccc(NC(=O)Nc2cn(C)c(=O)c3ccccc23)c(Cl)c1 -11.7%
Cc1cccc(N2CCN(C(=O)C3CCN(S(=O)(=O)c4c(C)noc4/C=C/c4ccccc4F)CC3)CC2C)c1 (stereo not given) -9.86%
CCc1ccccc1NC(=O)c1ccc(Cn2nc(N3CCN(c4ccccc4)CC3)ccc2=O)o1 -8.96%
Cc1cc(=O)n(Cc2ccccc2)c2c1c(C)nn2-c1ccccc1 -11.9%
Cc1ccc(CNC(=O)Cn2nc(N3CCN(c4ccccc4)CC3)ccc2=O)cc1 -8.95%
Cc1cccc(N2CCN(C(=O)c3cnn(-c4ccc(F)cc4F)c3C3CCN(C(=O)OC(C)(C)C)CC3)CC2)c1C -16.9%
CCOc1ccc(NC(=O)CC2C(=O)N(c3ccccc3)C(=O)N2C2CCCC2)cc1 (stereo not given) 5.31%
Cc1ccc(NC(=O)CSc2nc3ccccc3c(=O)n2CCC(=O)NC2CCCCC2)cc1C -3.4%
CCCNC(=O)CSc1c2c(nc3ccc(Cl)cc13)CCCC2 -2.11%
CCOC(=O)c1cc2c(=O)n3ccccc3nc2n(Cc2ccco2)c1=NC(=O)c1cccc(C)c1 -1.7%
CCCn1c2ccccc2c2cnn(CC(=O)N(CC)c3cc(C)ccc3C)c(=O)c21 -8.26%
CCOc1ccccc1NC(=O)c1cc2cc3cc(C)ccc3nc2s1 -9.77%
COc1ccc(-n2c(SCC(=O)NCc3ccco3)nc3c([nH]c4ccccc43)c2=O)cc1 -2.9%
CNC(=O)CCCN1C(=O)CCn2nc(-c3cn(C)c4ccccc34)cc21 -12.8%
COc1ccc(OCC(=O)Nc2cccc(C(=O)OCc3cc(=O)n4nc(C)sc4n3)c2)cc1 0.413%
COc1cccc(NC(=O)c2sc3nc(C)c(C(=O)Nc4ccc(C)cc4C)c(-c4ccco4)c3c2N)c1 -22%
CCc1cccc(NC(=O)CSc2nc3ccccc3nc2N2CCCCC2)c1 -19%
COCc1cc(C)nc2sc(C(=O)Nc3ccc(C(C)=O)cc3)c(N)c12 -5.2%
Cc1nc2c3ccccc3nc(NNC(=O)CCC(=O)N3CCN(c4cc(Cl)ccc4C)CC3)n2n1 -17.1%

— PubChem BioAssay AID1159614 (National Center for Advancing Translational Sciences (NCATS), 2016)
